Among all 39,000 compounds or so, about 220 (0.56%) showed activity. Some of the results follow.
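Also: static incubation at 37 °C against the wild-type strain, values averaged over two biological replicates.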

The subject of this assay is Escherichia coli K-12 BW25113. In words: relative growth (OD600 normalised to plate interquartile mean) (fraction); higher = less growth inhibition, active = 0.2 or less. As to conditions: 50 µM; LB; incubation time: overnight (16-24 h).
In the case of `Cc1noc(C)c1NC(=O)N(C)C[C@@H]1Oc2ncc(C#CCC(C)C)cc2C(=O)N([C@@H](C)CO)C[C@H]1C`, the relative growth is inactive: 0.966.
As to `C[C@H](CO)N1C[C@H](C)[C@H](CN(C)C(=O)C2CCOCC2)Oc2ncc(C#CCc3ccccc3)cc2C1=O`, the relative growth was inactive: 0.963.
With `C[C@@H]1CN([C@@H](C)CO)C(=O)c2cc(NC(=O)Nc3ccccc3)ccc2O[C@H]1CN(C)Cc1ccc(Oc2ccccc2)cc1` the figure was inactive: 0.931; with `C[C@@H]1CN([C@H](C)CO)C(=O)Cc2cc(NC(=O)Nc3cccc4ccccc34)ccc2O[C@@H]1CN(C)Cc1ccc2c(c1)OCO2`, inactive: 0.984.
With `C[C@@H]1CN([C@H](C)CO)C(=O)Cc2cc(NS(=O)(=O)c3cccs3)ccc2O[C@@H]1CN(C)S(=O)(=O)c1ccc(F)cc1` the figure was inactive: 0.889; with `CNC(=O)c1ccccc1N`, inactive: 1.
With `COc1ccc(CNC(=O)C[C@H]2C[C@H]3c4cc(NS(=O)(=O)c5ccc(F)cc5)ccc4O[C@H]3[C@@H](CO)O2)cc1` the figure was inactive: 1.03.
`NC(=O)CC(N)C(=O)O.O` (centres undefined): the relative growth is inactive: 0.956.
The result for `Cc1ccc(S(=O)(=O)Nc2ccc3c(c2)C(=O)N([C@H](C)CO)C[C@H](C)[C@H](CN(C)S(=O)(=O)c2c(C)noc2C)O3)cc1` reads inactive: 0.992; that for `CC(C)NC(=O)N(C)C[C@@H]1OCCCC[C@@H](C)Oc2ccc(NS(=O)(=O)c3cn(C)cn3)cc2C(=O)N([C@H](C)CO)C[C@H]1C`, inactive: 0.973; that for `COc1ccc(NC(=O)N(C)C[C@@H]2OCCCC[C@H](C)Oc3ccc(NC(=O)c4ccncc4)cc3C(=O)N([C@@H](C)CO)C[C@H]2C)cc1`, inactive: 0.985.
As to `OCCN1CCN(c2ncnc3c2ncn3[C@H]2CN(Cc3cccc(C(F)(F)F)c3)C[C@@H](CO)O2)CC1`, the relative growth is inactive: 0.957.
With `CNCc1nncn1C(C)C` the figure was inactive: 1.
The result for `CC(=O)Oc1cccc2c1C(=O)c1c(OC(C)=O)cc(C(=O)O)cc1C2=O` reads inactive: 0.976.
Take `Cc1ncc([N+](=O)[O-])n1C[C@@H](O)CCl`: the relative growth is inactive: 0.995.
The result for `Cc1noc(C)c1S(=O)(=O)N(C)C[C@@H]1Oc2ccc(NC(=O)Cc3cn(C)c4ccccc34)cc2CC(=O)N([C@H](C)CO)C[C@@H]1C` reads inactive: 1.01.
Consider `C[C@@H]1CCCCO[C@@H](CN(C)S(=O)(=O)c2ccc(Cl)cc2)[C@H](C)CN([C@@H](C)CO)C(=O)c2cc(NC(=O)Nc3ccccc3)ccc2O1`, for which the relative growth is inactive: 1.04.
The result for `Cc1noc(C)c1S(=O)(=O)Nc1ccc2c(c1)C(=O)N([C@@H](C)CO)C[C@H](C)[C@H](CN(C)C)OCCCC[C@@H](C)O2` reads inactive: 0.931; that for `C[C@@H]1CCCCO[C@@H](CN(C)Cc2ccncc2)[C@@H](C)CN([C@H](C)CO)C(=O)c2cc(NC(=O)Nc3ccc(C(F)(F)F)cc3)ccc2O1`, inactive: 1.04; that for `Cc1noc(C)c1NC(=O)Nc1ccc2c(c1)C(=O)N([C@@H](C)CO)C[C@H](C)[C@@H](CN(C)Cc1ccc(Oc3ccccc3)cc1)O2`, inactive: 1.
Turning to `C=CCOC(=O)[C@@H]1[C@H]2C(=O)O[C@H](c3ccccc3)[C@H](c3ccccc3)N2[C@H](c2ccc(OCCOC(=O)[C@@H]3C[C@@H]4C(=O)N5CCC[C@H]5C(=O)N4[C@@H]3c3ccc(O)cc3)cc2)[C@@]12C(=O)Nc1ccccc12`, the relative growth was inactive: 1.06.
For `Cc1ccccc1S(=O)(=O)N1C[C@H](O)COC[C@H]2O[C@@H](CC(=O)NCc3ccccc3Cl)CC[C@@H]21`, the relative growth was inactive: 0.991.
The result for `Nc1ccn([C@@H]2CS[C@H](CO)O2)c(=O)n1` reads inactive: 0.988; that for `Cc1noc(C)c1NC(=O)N(C)C[C@H]1Oc2ncc(C#CCN(C)C)cc2C(=O)N([C@@H](C)CO)C[C@@H]1C`, inactive: 1; that for `C[C@@H]1CN([C@H](C)CO)S(=O)(=O)c2ccc(C#CC3(O)CCCC3)cc2O[C@@H]1CN(C)C(=O)Nc1ccccc1`, inactive: 0.979.
The result for `C[C@H](CO)N1C[C@H](C)[C@@H](CN(C)CC2CCCCC2)OCCCC[C@H](C)Oc2ccc(NC(=O)Nc3ccccc3)cc2C1=O` reads inactive: 0.899.
The result for `Cc1ccc(S(=O)(=O)N(C)C[C@@H]2Oc3ccc(NC(=O)Nc4cccc5ccccc45)cc3CC(=O)N([C@@H](C)CO)C[C@@H]2C)cc1` reads inactive: 1.03; that for `C[C@H]1CCCCO[C@@H](CN(C)Cc2ccc(C(=O)O)cc2)[C@@H](C)CN([C@@H](C)CO)C(=O)c2cc(NC(=O)c3ccccc3)ccc2O1`, inactive: 1.02.
As for `COc1ccc(NC(=O)N(C)C[C@H]2OCCCC[C@H](C)Oc3ccc(NC(=O)C4CCCCC4)cc3C(=O)N([C@@H](C)CO)C[C@@H]2C)cc1`, the relative growth was inactive: 1.02.
Consider `C[C@@H]1CN([C@H](C)CO)C(=O)c2cc(NC(=O)Cc3cn(C)c4ccccc34)ccc2O[C@@H]1CN(C)C(=O)Nc1cccc2ccccc12`, for which the relative growth is inactive: 1.01.
With `Cc1c(CN2CCC(Nc3ncnc4sc(CC(F)(F)F)cc34)CC2)ccc2c1cc(C#N)n2Cc1cn[nH]c1` the figure was inactive: 1.03.
The result for `Cc1noc(C)c1NC(=O)Nc1cccc2c1O[C@H](CN(C)Cc1ccc(Oc3ccccc3)cc1)[C@H](C)CN([C@@H](C)CO)C2=O` reads inactive: 0.985.
Regarding `Cn1cnc(S(=O)(=O)N[C@@H]2C=C[C@H](CC(=O)N3CCN(c4ccccc4)CC3)O[C@H]2CO)c1`, the relative growth was inactive: 0.995.
With `C[C@H](CO)N1C[C@H](C)[C@H](CN(C)C(=O)Nc2ccccc2)Oc2ccc(NS(C)(=O)=O)cc2CC1=O` the figure was inactive: 0.975; with `C[C@@H]1CN([C@@H](C)CO)C(=O)c2cccc(NC(=O)c3cnccn3)c2O[C@@H]1CN(C)Cc1ccncc1`, inactive: 0.987; with `Cc1noc(C)c1NC(=O)Nc1ccc2c(c1)C(=O)N([C@H](C)CO)C[C@H](C)[C@H](CN(C)C(=O)Nc1ccc(C(F)(F)F)cc1)O2`, inactive: 0.943.
The result for `CON=C(C(=O)NC1C(=O)N2C(C(=O)OCOC(=O)C(C)(C)C)=C(C=Cc3scnc3C)CSC12)c1csc(N)n1` (centres undefined) reads active: 0.0492; that for `C[C@H]1CN([C@@H](C)CO)C(=O)Cc2cc(NS(=O)(=O)c3ccccc3)ccc2O[C@@H]1CN(C)S(=O)(=O)c1cn(C)cn1`, inactive: 0.998.
The result for `C[C@@H]1CN([C@@H](C)CO)C(=O)c2cc(NC(=O)C3CCCCC3)ccc2O[C@@H]1CN(C)C(=O)Nc1ccc(C(F)(F)F)cc1` reads inactive: 0.994.
For the compound `C[C@@H]1CN([C@H](C)CO)C(=O)c2cc(NC(=O)Nc3ccc4c(c3)OCO4)ccc2O[C@@H](C)CCCCO[C@@H]1CN(C)C(=O)CCC(F)(F)F`, the relative growth was inactive: 0.934.
As to `NC(=O)c1nnn(Cc2ccccc2)c1N`, the relative growth was inactive: 1.02.
The result for `C[C@@H]1CN([C@@H](C)CO)C(=O)c2ccccc2-c2ccccc2CO[C@@H]1CN(C)C(=O)Nc1ccccc1C(F)(F)F` reads inactive: 1.01; that for `COc1ccc(S(=O)(=O)N[C@@H]2CC[C@@H](CC(=O)N3CCN(c4ccccc4)CC3)O[C@H]2CO)cc1`, inactive: 0.987; that for `C[C@H](CO)N1C[C@H](C)[C@@H](CN(C)Cc2ccncc2)Oc2ccc(NS(=O)(=O)c3ccc(F)cc3)cc2C1=O`, inactive: 0.99.
For `COc1ccc(CN(C)C[C@@H]2Oc3ccc(NC(=O)Nc4cccc5ccccc45)cc3C(=O)N([C@H](C)CO)C[C@@H]2C)cc1`, the relative growth was inactive: 0.97.
With `C[C@@H]1CCCCO[C@H](CN(C)C(=O)c2ccncc2)[C@H](C)CN([C@@H](C)CO)C(=O)c2cc(NC(=O)C3CCCCC3)ccc2O1` the figure was inactive: 0.977; with `C[C@@H]1CC[C@H](C)N1c1cc(C(F)(F)F)cc(C(F)(F)F)c1`, inactive: 0.947; with `Cc1noc(C)c1S(=O)(=O)Nc1ccc2c(c1)C(=O)N([C@H](C)CO)C[C@H](C)[C@H](CN(C)C(=O)Nc1ccc(F)cc1)OCCCC[C@@H](C)O2`, inactive: 0.984.
As for `C[C@@H]1CN([C@H](C)CO)C(=O)Cc2cc(NC(=O)Nc3ccc(C(F)(F)F)cc3)ccc2O[C@H]1CN(C)Cc1ccc(C(=O)O)cc1`, the relative growth was inactive: 0.994.
As to `NC(C(=O)O)C(O)C(=O)O` (stereo not drawn) ["d,l-threo-3-HYDROXYASPARTIC ACID"], the relative growth is inactive: 1.08.
With `O=C(Nc1ccno1)NN1CCOCC1` the figure was inactive: 0.964; with `C[C@@H]1CN([C@H](C)CO)C(=O)Cc2cc(NC(=O)CCCCCC(=O)Nc3ccccc3N)ccc2O[C@@H]1CN(C)Cc1ccc(-c2ccccc2)cc1`, inactive: 0.996; with `CO[C@@H]1CN(C)C(=O)c2ccc(NC(=O)CC(F)(F)F)cc2OC[C@@H](C)N(S(=O)(=O)c2cn(C)cn2)C[C@@H]1C`, inactive: 1.
Regarding `Cc1noc(C)c1S(=O)(=O)Nc1ccc2c(c1)C(=O)N([C@@H](C)CO)C[C@H](C)[C@@H](CN(C)S(=O)(=O)c1cn(C)cn1)OCCCC[C@@H](C)O2`, the relative growth is inactive: 0.985.
The result for `N=C(N)NC[C@H]1COC2(CCCCC2)O1` reads inactive: 0.987; that for `COc1ccc(S(=O)(=O)Nc2ccc3c(c2)C(=O)N([C@@H](C)CO)C[C@H](C)[C@@H](CN(C)Cc2ccc(C(F)(F)F)cc2)OCCCC[C@@H](C)O3)cc1`, inactive: 1.05.
The result for `Cc1ccc(S(=O)(=O)Nc2ccc3c(c2)C(=O)N([C@H](C)CO)C[C@@H](C)[C@H](CN(C)C(=O)Nc2ccc4c(c2)OCO4)OCCCC[C@@H](C)O3)cc1` reads inactive: 1.01; that for `C[C@H]1CCCCO[C@@H](CN(C)Cc2ccc(C(F)(F)F)cc2)[C@@H](C)CN([C@@H](C)CO)C(=O)c2cc(NC(=O)Nc3ccc(C(F)(F)F)cc3)ccc2O1`, inactive: 1.07; that for `C[C@H](CO)N1C[C@H](C)[C@@H](CN(C)C(=O)c2ccc3c(c2)OCO3)Oc2cc(C#Cc3ccccc3F)ccc2S1(=O)=O`, inactive: 1.02.

The values are drawn from the supplement of paper PMC9446081.
